Experimental data: the supplement of paper PMC3334620
In all, about 33,000 sequences were measured (“E-score (-0.5 to 0.5)”: median about -0.043, highest 2% from about 0.37 on). The list shows a part of the results.

What follows are sequences tested against T1, Upc2 (UniProt Q12151) (assay: PBM E-score (8-mer binding enrichment) (E-score (-0.5 to 0.5)); higher = stronger / more preferred TF binding; most listed sequences are background and not binding sites). Details: protein concentration: 200 nM; construct: GST-full length.
T1 sequence: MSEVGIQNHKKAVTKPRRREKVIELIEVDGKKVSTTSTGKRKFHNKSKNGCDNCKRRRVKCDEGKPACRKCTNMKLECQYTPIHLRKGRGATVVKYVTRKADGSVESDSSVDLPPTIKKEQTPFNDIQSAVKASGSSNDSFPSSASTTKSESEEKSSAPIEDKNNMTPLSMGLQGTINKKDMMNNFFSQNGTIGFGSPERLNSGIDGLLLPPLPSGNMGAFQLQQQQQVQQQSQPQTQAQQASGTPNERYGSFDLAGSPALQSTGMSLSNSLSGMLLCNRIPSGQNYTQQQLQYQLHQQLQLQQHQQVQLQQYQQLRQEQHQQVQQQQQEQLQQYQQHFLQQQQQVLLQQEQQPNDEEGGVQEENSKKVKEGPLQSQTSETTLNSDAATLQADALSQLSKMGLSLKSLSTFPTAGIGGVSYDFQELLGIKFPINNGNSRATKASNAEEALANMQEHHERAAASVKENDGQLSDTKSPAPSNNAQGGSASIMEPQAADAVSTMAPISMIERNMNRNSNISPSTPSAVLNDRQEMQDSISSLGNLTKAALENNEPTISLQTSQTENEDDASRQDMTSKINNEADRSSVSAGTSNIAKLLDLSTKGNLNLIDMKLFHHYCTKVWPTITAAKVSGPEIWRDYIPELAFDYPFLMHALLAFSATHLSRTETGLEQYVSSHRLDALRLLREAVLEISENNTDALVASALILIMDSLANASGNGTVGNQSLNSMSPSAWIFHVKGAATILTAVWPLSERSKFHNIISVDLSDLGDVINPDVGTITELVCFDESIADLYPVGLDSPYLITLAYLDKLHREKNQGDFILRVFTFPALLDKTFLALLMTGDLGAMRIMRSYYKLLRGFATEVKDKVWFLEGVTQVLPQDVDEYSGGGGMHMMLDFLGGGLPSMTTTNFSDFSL
Procedure: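 Universal 'all 10-mer' protein binding microarrays (Agilent AMADID 015681) probed with GST-tagged S. cerevisiae TFs (full-length or DBD) made by in vitro transcription/translation (PURExpress), about 100-200 nM. Bound TF was detected with fluorescent anti-GST. Each ungapped 8-mer (which stands for itself and its reverse complement) is scored by the PBM enrichment score (E-score), a modified Wilcoxon-Mann-Whitney statistic from -0.5 to +0.5, computed with the Universal PBM Analysis Suite. Scale: above 0.35 generally sequence-specific binding.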

| Sequence | PBM E-score |
| --- | --- |
| CGCAACGC | 0.0437 |
| GCGCACAC | -0.199 |
| CAGATTTC | -0.0305 |
| ACAGTTTA | 0.0481 |
| CAAGTCAC | -0.162 |
| GAGCACCC | -0.0816 |
| GGGGATAC | 0.0375 |
| ACGTGCCC | 0.135 |
| GCCGCCCA | -0.0637 |
| GACTGCCA | -0.165 |
| AGTCAAAG | -0.00429 |
| ACGCACAA | 0.115 |
| AATGAAGG | -0.0344 |
| CCTAGAGC | -0.328 |
| CACGCCTA | -0.0789 |
| CGGATTAC | 0.0155 |
| GGCTTTCA | 0.0463 |
| GTTTCACA | 0.00208 |
| CGTTGGAG | -0.0641 |
| TCTCTACA | -0.144 |
| GCGGTCCC | -0.139 |
| CAGAGAAC | -0.0663 |
| TTAGGGAA | -0.101 |
| AGGCACGA | -0.187 |
| ATGAAAGC | 0.00743 |

| Sequence | PBM E-score |
| --- | --- |
| CCTCGATA | -0.0083 |
| AGTCTGGA | -0.0209 |
| AACAAACG | 0.353 |
| GCTTCCTA | 0.0242 |
| CACTGTCG | 0.138 |
| GGCCAGCC | -0.0923 |
| ACAAGCTC | -0.0437 |
| CGAAGGAC | 0.0495 |
| ATTTATTA | 0.185 |
| TTTGAAAA | 0.0863 |
| AATCAGAA | -0.0871 |
| ATCTCCAT | -0.322 |
| AATTTGAG | -0.00158 |
| GGACTGAC | -0.126 |
| ACTATTTC | 0.0805 |
| ACCCCCCG | -0.158 |
| GACTAGTA | -0.16 |
| CCACTGAC | -0.0899 |
| CCGTTTCG | 0.255 |
| ACAGTTCG | 0.195 |
| AATTCGAC | -0.211 |
| CGCACCGA | 0.0582 |
| GATATCAC | 0.00147 |
| CGTTGCAC | 0.182 |
| TGGACAAA | -0.137 |

| Sequence | PBM E-score |
| --- | --- |
| CCTGTAGC | -0.306 |
| CTCTGGGC | -0.189 |
| GCCTTAAC | 0.127 |
| CTTGTGCA | -0.0202 |
| AGAGCGTA | 0.223 |
| TACGATGA | 0.433 |
| ACCCTACC | -0.102 |
| AATGACGC | -0.0909 |
| GACGCGCA | -0.0651 |
| ATCGAGAG | 0.0513 |
| AGTGAGCA | -0.137 |
| CGACGCGC | 0.177 |
| CGAACCGC | 0.23 |
| TATCATAA | 0.086 |
| AGGGGTAA | -0.0912 |
| AACACCGG | 0.0862 |
| CGAGGCGC | 0.163 |
| AACCGGGG | -0.119 |
| GATCAGGA | -0.154 |
| GATAGATA | -0.0215 |
| AAGATGGT | -0.0517 |
| ACAGGACT | -0.151 |
| CGAATTGA | 0.111 |
| GATTGCAC | -0.0715 |
| CTCCACCC | -0.189 |

| Sequence | PBM E-score |
| --- | --- |
| TGTGAAAA | -0.0936 |
| ACATATAG | -0.144 |
| AAGGAACT | -0.102 |
| AGTATTGA | -0.153 |
| CCTCTGCG | 0.00482 |
| AAACGACA | 0.479 |
| ACGTAAAG | 0.308 |
| CCTAGTCC | -0.329 |
| TCTGTACA | 0.12 |
| AGATCTGA | -0.163 |
| CGATTTTC | 0.116 |
| ACGCGTCG | 0.284 |
| CGCGTGTA | 0.0108 |
| TCCTTCAA | -0.24 |
| ACGATGTG | 0.272 |
| TCCATCCA | -0.127 |
| AGCTACGA | 0.34 |
| CATTCTCC | -0.131 |
| AAGGCGGG | -0.138 |
| CTCAGCCC | -0.249 |
| GTCGCTCA | 0.278 |
| CCGGATGC | -0.0589 |
| AAGGAGAA | 0.112 |
| ATACTCTG | 0.147 |
| ATAGTTGA | 0.103 |

| Sequence | PBM E-score |
| --- | --- |
| ACCCAACA | -0.221 |
| CTTGATTC | -0.106 |
| ACGAAGAG | 0.324 |
| AGAGCTAA | -0.126 |
| ACGCTACT | 0.0544 |
| ATTTATAA | 0.0439 |
| CAGGCAGC | -0.324 |
| AGATCATC | -0.0802 |
| ATCTAATC | -0.0686 |
| CTTGAGTA | -0.15 |
| ACAGAAGG | -0.16 |
| CTAGTAAG | -0.321 |
| GAAGCAGC | -0.111 |
| AGGTAGCC | -0.295 |
| CATCGGCC | -0.173 |
| CATATTGC | -0.274 |
| ACAGCCTG | -0.167 |
| CGGCACAC | -0.0638 |
| CATGATGG | -0.253 |
| GGTAGCAA | 0.0291 |
| AGTTAGAC | -0.026 |
| ATAGATCA | -0.00424 |
| CTGGCAAC | -0.236 |
| AGTCAGAA | -0.141 |
| TATCTAGA | 0.0229 |

| Sequence | PBM E-score |
| --- | --- |
| ATTGTTGA | -0.113 |
| AAGTAGTG | -0.0715 |
| ATAACACA | 0.0511 |
| ATGCAAGC | -0.19 |
| CCTAGGAG | -0.273 |
| TAATAGTA | 0.104 |
| ATCGGAAG | -0.0815 |
| GGGCGGAA | -0.158 |
| AACGGACT | 0.0729 |
| ACGGCACA | 0.116 |
| ACATCCAA | 0.0397 |
| GTCCTCCA | -0.13 |
| GTTTATTA | 0.256 |
| CCCTAAAA | -0.133 |
| GTCGGCCA | -0.0644 |
| ACCAAGCG | 0.0196 |
| CCGATCAA | -0.117 |
| GGATGAAC | -0.00945 |
| AGTAACAC | 0.0459 |
| CTCGGGAA | 0.14 |
| CTAGCGCA | -0.22 |
| CCAGACTA | -0.0755 |
| TACATGTA | 0.0359 |
| CCCCCCAC | -0.4 |
| CCAATTAG | -0.17 |

| Sequence | PBM E-score |
| --- | --- |
| ATGGGACC | -0.147 |
| CAGGGAGC | -0.0143 |
| CATAACTA | -0.108 |
| GAGGAGAA | -0.0379 |
| CGGGTACG | 0.43 |
| CTTAGCCA | -0.194 |
| CTCAGTGC | -0.0436 |
| CAGAGCTA | -0.34 |
| AAAAGATT | -0.0277 |
| CGCACAAG | 0.12 |
| GGTGCCTA | -0.1 |
| CAATACAA | 0.00139 |
| CACATTTC | 0.0463 |
| AGTGACTA | -0.0222 |
| ACAGATGC | -0.00973 |
| AACCGACT | 0.23 |
| CGACTGCA | 0.0711 |
| AACAAACC | 0.00819 |
| CGCCGCGA | -0.0263 |
| GTTAACTA | 0.157 |
| CGTCCCAA | -0.118 |
| CTCACCCC | -0.202 |
